Laboratory results reported in article PMC4650713, “Crystal structure of Bax bound to the BH3 peptide of Bim identifies important contacts for interaction” (Cell Death & Disease, 2015).

Molecular target: the molecule itself
Test: SEC; BaxΔC21 (2 mg/ml) with a twofold molar excess of BH3 peptide in TBS with 1% CHAPS, 1 h at room temperature, Superdex75 in TBS

B1: BaxΔC21 (domain or fragment)
chain: not shown
notes: Bax truncated at the C terminus by 21 amino acids, with C62S and C126S; its C-terminal residues are named as 168–171; also called Bax C62S C126S truncated at the C terminus by 21 amino acids
stoichiometry N: 2
